For 82 compounds, TGI and GI50 results are on record in PubChem BioAssay (NCI).

The structures appear in SMILES notation. Values joined by “and” are separate entries in the source; they are usually repeats but may differ in a detail not shown here. Identical values can stand only once.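 Values below derive from 48-hour exposures of cells grown in 96-well plates, with endpoints linearly interpolated between the two concentrations bracketing the appropriate inhibition level. GI50 = concentration required for 50% inhibition of growth. TGI is the concentration that stops growth completely.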

The assay relates to NCI-H322M lung. The assay is described as follows: NCI anticancer screen, dose series, 48 h.

In turn, `O=C1Oc2ccccc2C(=O)/C1=C/N1C(=O)/C(=C/c2ccc([N+](=O)[O-])cc2)SC1=S` gave a TGI greater than 100 µM.

In the case of `c1ccc2c(c1)CCc1c-2n(CCN2CCCCC2)c2ccccc12`, the TGI stood at 41.3 µM.

As to `CC1CCCC(C(O)CC2CC(=O)N(c3ccccc3)C(=O)C2)C1=O` (stereo unspecified), the TGI is greater than 100 µM.

`N#Cc1c[nH]n2ccnc12` came in with a TGI greater than 100 µM.

With `N#CC1C(=N)Cc2ccccc2-c2ccccc21` (stereo unspecified), the GI50 was 15.6 µM and the TGI is greater than 100 µM.

On to `FC(F)(F)c1ccc(C=NC23CC4CC(CC(C4)C2)C3)cc1`, for which the TGI was greater than 100 µM.

In turn, `CC(C)(C)OC(=O)C1=C(C(=O)OC(C)(C)C)SC2(S1)C(C(=O)OC(C)(C)C)=C(C(=O)OC(C)(C)C)Sc1c2ssc1=O` gave a TGI greater than 100 µM.

With `O=c1cccc(C#Cc2ccccc2)o1`, the GI50 was 7.04 µM and the TGI was 19.5 µM.

`Cc1cc(N(CCC#N)CCC#N)ccc1/C=C(\NC(=O)/C=C/c1ccccc1)NC(=O)Nc1ccc(Cl)cc1`: the TGI was greater than 100 µM.

With `CN1N=C2c3ccccc3CC[C@H]2C1c1ccccc1` (stereo partly specified), the TGI was greater than 100 µM.

For the compound `COC1=CC(=O)C(O)=C(C[C@@]2(C)[C@@H]3CCC[C@H](COC(=O)CCCCCNC(=O)OC(C)(C)C)[C@@]3(C)CC[C@@H]2C)C1=O`, the TGI was greater than 10 µM.

`C[C@@]12CC[C@H]3[C@@H]4CCC(=O)N[C@@]4(C)CC[C@@H]3[C@@]1(C)CC[C@H](OC(=O)Cc1ccc(N(CCCl)CCCl)cc1)C2` displayed a TGI of 33 µM.

Turning to `COc1ccc2nc(NCCCNCCO)c3sc4ccc(F)cc4c(=O)c3c2c1`, the GI50 is 1.64 µM and the TGI worked out at 3 µM.

Consider `Cc1ccc(/C=C2\NC(=S)N(CN3CCOCC3)C2=O)cc1`, for which the TGI was greater than 100 µM.

Take `C/C=C(/C)C(=O)O[C@@H]1c2c(C)coc2C[C@H]2CC[C@H](O)[C@H](C)[C@]21C`: the TGI was greater than 100 µM.

Take `O=C1CN(c2ccc(Cl)cc2)C(=O)CN1CCN1CC(=O)N(c2ccc(Cl)cc2)CC1=O`: the TGI is greater than 100 µM.

The compound `N#C/C(=C/c1cccnc1)C(=O)c1ccccc1` yielded a TGI greater than 100 µM.

As to `COC(=O)[C@@H]1c2cc3c(c(O)c2[C@@H](OC)C[C@@]1(C)O)C(=O)c1c(O)cc2c(c1C3=O)OC1O[C@@]2(C)[C@H](O)[C@@H](N(C)C)[C@@H]1O`, the TGI came to 2.24 µM.

As to `Oc1ccc2c(c1)OCC(O)(c1ccccc1O)C2` (stereo unspecified), the TGI is greater than 100 µM.

On to `C=C(CNCCc1ccc(O)cc1)[C@@H]1CC[C@]2(CO)CC[C@]3(C)[C@H](CC[C@@H]4[C@@]5(C)CCC(=O)C(C)(C)[C@@H]5CC[C@]43C)[C@@H]12`, for which the GI50 is 1.61 µM and the TGI was 2.99 µM.

Turning to `O=C(O)Cc1ccc(N2N=C(c3ccccc3)CC2=O)cc1`, the TGI was greater than 100 µM.

Take `CC(=O)O[C@H]1[C@@H]2[C@@H]3[C@@H](C[C@H]1C)[C@@H](C)CO[C@@]1(C)CC/C=C(/C)C[C@@H]2O[C@@H]31`: the TGI is greater than 100 µM.

Turning to `COc1ccc(/C=C2\CN(C)CC3=C2OC(N)=C(C#N)C3c2ccc(OC)cc2)cc1` (stereo unspecified), the TGI is greater than 100 µM.

Compound `Cn1cc2c(n1)c(N/N=C/c1ccccc1)nn1nnnc21` gave a TGI greater than 100 µM.

In the case of `CS(=O)(=O)N1CCN(Cc2cc3nc(-c4cccc5[nH]ncc45)nc(N4CCOCC4)c3s2)CC1` (tested in a mixture with another compound), the GI50 is 0.209 µM and the TGI amounted to 3.41 µM.

Compound `CC1=C(C(=O)OCCO[N+](=O)[O-])C(c2ccccc2C(F)(F)F)C(C(=O)OC(C)C)=C(C)N1` (stereo unspecified) had a TGI greater than 100 µM.

`C/C(=N\NC(=O)CC(=O)Nc1ccc(Cl)cc1)c1cc2ccccc2oc1=O` showed a TGI greater than 100 µM.

Turning to `Nc1c(C(=O)c2cccc(OCCN3CCOCC3)c2)cnn1-c1ccc(F)cc1`, the GI50 is greater than 25 µM and the TGI was greater than 25 µM.

Consider `O=C1C(Cl)=C(Nc2ccc3cn[nH]c3c2)C(=O)c2ccccc21`, for which the GI50 is 2.21 µM and the TGI is 8.62 µM.

On to `C#CCN1CCN(C(=S)N/N=C(\C)c2ccccn2)CC1`, for which the GI50 is 0.0215 µM; the TGI was 6.34 µM and 5.93 µM.

`OC1C(O)C(O)C(O)C(O)C1O` (stereo unspecified) came in with a TGI greater than 1000 µM.

Compound `O=C(CC/C(C/C(=N/O)c1ccc(F)cc1)=N/O)N(Cc1ccccc1)Cc1ccccc1` gave a TGI greater than 100 µM.

For the compound `CCc1cccc(CC)c1NC(=S)NC(=O)c1ccc(Br)cc1`, the TGI was greater than 100 µM.

`c1ccc2nc3[nH]c4ccccc4c3cc2c1` had a TGI of 5.16 µM.

On to `Cn1ccc(=Nc2ccc(NC(=O)c3ccc(N=c4ccn(C)c5ccc([N+](=O)[O-])cc45)cc3)cc2)cc1`, for which the GI50 is greater than 100 µM and the TGI was greater than 100 µM.

The compound `COc1ccc(NC(=O)C(=O)NNC(=O)c2sc(NNC(C)=O)nc2C)c([N+](=O)[O-])c1` came in with a TGI greater than 100 µM.

`CC[C@@]1(O)C(=O)OCc2c1cc1n(c2=O)Cc2cc3cc(OC)ccc3nc2-1`: the GI50 is 0.0203 µM; the TGI is 0.543 µM and 0.486 µM.

Regarding `O=C(O)c1c(-c2c3ccc(=O)cc-3oc3cc(O)ccc23)cc2ccccc2c1-c1ccccc1`, the TGI is greater than 100 µM.

For the compound `CCCCCCCCOc1ccc(/C=N/Nc2cc(C)nc3ccc(Cl)cc23)cc1`, the GI50 was 1.79 µM and the TGI amounted to 3.21 µM.

`Cc1ccc(NC(=O)CC(=O)n2nc(-c3ccccc3)c(N=Nc3ccc(Cl)cc3)c2-c2ccccc2)cc1` had a TGI greater than 100 µM.

For `CCC(=O)OCc1ccc2oc(=O)c(C(=O)Oc3cncc(Cl)c3)cc2c1`, the TGI was greater than 100 µM.

For `C=C(CN1CCN(c2cccc(C(F)(F)F)c2)CC1)c1ccc(C(=O)Nc2ccccc2N)cc1`, the GI50 was 0.936 µM and the TGI is 12.3 µM.

`COc1ccc(/C(Cl)=C(\C=O)c2ccc(F)cc2)cc1` gave a TGI of 73.3 µM.

On to `Clc1ccc(OCc2nnc3sc(-c4ccc(-c5ccc(Cl)cc5Cl)o4)nn23)c(Cl)c1`, for which the TGI was determined as 50.4 µM.

Consider `NC(=O)N/N=C(\Cc1nc2ccc(C(=O)c3ccccc3)cc2[nH]c1=O)C(=O)Nc1ccc(Br)cc1`, for which the TGI is greater than 100 µM.

In turn, `Oc1[nH]c2ccccc2c1N=NC1=NCCCCN1` registered a TGI greater than 100 µM.

In turn, `O=C(CSc1nnc(Cc2ccccc2)o1)Nc1ccc(Cl)cc1` showed a TGI greater than 100 µM.

For the compound `C=CCNC1=C(C(=O)OCC)C(=O)CO1`, the TGI was greater than 100 µM.

With `CCC(=O)OC1CCn2c1nc1c2C(=O)C(C)=C(N2CC2)C1=O` (stereo unspecified), the TGI amounted to 1.74 µM.

Take `Nc1ccc(C#Cc2cncnc2Nc2ccc(OCc3cccc(F)c3)c(Cl)c2)cc1`: the GI50 is 5.94 µM and the TGI was greater than 25 µM.

`COC(=O)[C@H]1[C@H](C(=O)OC)[C@@H](C)c2c(ccc3c2[nH]c2ccccc23)[C@@H]1C` had a TGI greater than 100 µM.

The compound `CCOC(=O)CCC(NC(=O)c1ccc(CNc2nc3cc(N)cc(N)c3nc2-c2ccccc2)cc1)C(=O)OCC` (stereo unspecified) returned a TGI greater than 100 µM.

In the case of `COc1ccc2cc(C(=O)/C=C/c3cccc(Cl)c3Cl)ccc2c1`, the GI50 is 32.3 µM and the TGI was greater than 100 µM.

In the case of `C=CCN1C(=O)/C(=C/c2ccc(C)cc2)N=C1SC/C=C/C`, the TGI was greater than 100 µM.

On to `OC(c1cccs1)c1cc2ccccc2s1` (stereo unspecified), for which the TGI is greater than 10 µM.

`C#CC(O)/C=C/CCCCCCC#CC/C=C\CC#CCCCCCC/C=C/C(O)C#C` (stereo unspecified) yielded a TGI of 15 µM.

`Cc1ccc(C(=O)CC(Cl)=C(Cl)Cl)cc1` displayed a TGI greater than 100 µM.

For the compound `O=c1nc2n(cc1/C=C\Br)C1CC(O)C(CO2)O1` (stereo unspecified), the TGI is greater than 100 µM.

As for `CC(SC(=S)N1CCCCC1)C(=O)Nc1nnc(-c2ccc(Cl)cc2)o1` (stereo unspecified), the TGI was greater than 100 µM.

With `Cc1cccc2sc(NC(=O)c3cc([N+](=O)[O-])ccc3Cl)nc12`, the TGI was greater than 70 µM.

In the case of `COC(=O)C(NC(=O)CNC(=O)CSc1nnc(COc2ccc(Cl)cc2)n1-c1ccccc1)C(C)C` (stereo unspecified), the TGI amounted to 36.6 µM.

In the case of `COc1cc2c3c(n(CCCN)c(=O)c2cc1OC)-c1ccc(F)cc1C3=O`, the GI50 was 7.65 µM and the TGI stood at 21.1 µM.

Compound `NC1CC2C3CCC2C1C3=O` (stereo unspecified) had a TGI greater than 100 µM.

On to `CN(C)c1ccc(/C=C/c2sc3ccc4ccccc4c3[n+]2C)cc1`, for which the GI50 is 0.436 µM and the TGI was 2.5 µM.

Compound `Cc1cc(=O)oc2cc(OC(=O)Nc3ccc(Cl)c(Cl)c3)ccc12` showed a TGI greater than 100 µM.

Take `CC1(C)OCC2OC3([C@H](O)CCO)OC(C)(C)OC3C2O1` (stereo partly specified): the TGI was greater than 100 µM.

As for `CCCCCCOc1ccc(NC2=C(Cl)C(=O)c3cccnc3C2=O)cc1`, the TGI is 6.49 µM.

In turn, `Cc1ccc(NS(=O)(=O)c2cc(C(C)(C)C)ccc2OCCOCCOCCOc2ccc(C(C)(C)C)cc2S(=O)(=O)Nc2ccc(C)cc2)cc1` showed a TGI greater than 100 µM.

The compound `CC1=C(C2=C(C)C(=O)C(=O)c3cc(C)ccc32)c2ccc(C)cc2C(=O)C1=O` had a TGI of 3.22 µM.

In turn, `Cn1c(C(C#N)c2cc(Cl)ncn2)nc2ccccc21` (stereo unspecified) showed a TGI greater than 100 µM.

For the compound `COc1ccc(CNc2nc(NCc3ccc(OC)cc3)nc(Nc3ccccc3)n2)cc1`, the TGI was greater than 100 µM.

`Cn1c(-c2csc(-c3ccc(Cl)cc3)n2)n[nH]c1=S` gave a TGI greater than 100 µM.

With `Cc1ccc(S(=O)(=O)N2CCC3(C(/C=C/c4ccccc4)=Nc4ccccc43)C2c2ccccc2)cc1` (stereo unspecified), the TGI is greater than 100 µM.

In turn, `CC(C)(C)c1cc(-c2ccc(-c3cc(C(C)(C)C)c(O)c(C(C)(C)C)c3)cc2)cc(C(C)(C)C)c1O` came in with a TGI greater than 100 µM.

On to `C=C1C(=O)O[C@H]2[C@H]1CC/C(COC(=O)C(=O)c1c[nH]c3ccc(OC)cc13)=C\CC[C@@]1(C)O[C@@H]21`, for which the GI50 is 7.53 µM and the TGI amounted to 13.3 µM.

For `O=[N+]([O-])CC(SCc1ccccc1)c1ccc2c(c1)OCO2` (stereo unspecified), the TGI came out at 33.1 µM.

With `CCN1/C(=C/c2ccc3ccccc3[n+]2CC)C=Cc2ccccc21`, the TGI was 14.6 µM.

Take `N#CC1C(=O)Nc2sc(C(=O)c3ccc(Br)cc3)c(N)c2C12CCCCC2` (stereo unspecified): the TGI is greater than 100 µM.

On to `Cc1ccc(N=C2CSc3nnc(-c4csc5c4CCCC5)n3N2)cc1`, for which the GI50 was 0.403 µM and the TGI is greater than 50 µM.

Regarding `COc1cc2c3c(n(CCN)c(=O)c2cc1OC)-c1cc2c(cc1C3=O)OCO2`, the GI50 was 1.22 µM and the TGI turned out to be 2.71 µM.

Turning to `[Cl-].[Rh+3].c1ccc(-c2ccnc3c2ccc2c(-c4ccccc4)ccnc23)cc1.c1ccc(-c2ccnc3c2ccc2c(-c4ccccc4)ccnc23)cc1.c1ccc(-c2ccnc3c2ccc2c(-c4ccccc4)ccnc23)cc1`, the TGI was greater than 100 µM.

Compound `O=C(O)c1c(CC(Cc2ccc3c(c2)CCCC3)C(=O)O)ccc2c1CCCC2` (stereo unspecified) registered a TGI greater than 100 µM.
